The supplement of paper PMC4604168 (melanoma cell lines)
Some of the results follow. Most values come without repeats; read them as rough.

Tests used:
Test in all cases: cell count relative to DMSO control; melanoma cells; higher = more viable cells
Settings in all cases: library dose: standard library concentration; 72 h
[1] = test system: G361
[2] = test system: IPC-298
[3] = test system: IST-MEL1
[4] = test system: LB2518-MEL
[5] = test system: LOXIMVI
[6] = test system: MEL-HO
[7] = test system: MZ2-MEL
[8] = test system: MeWo
[9] = test system: RPMI7951
[10] = test system: RVH-421
[11] = test system: SkMel28
[12] = test system: SkMel2
[13] = test system: SkMel30
[14] = test system: SkMel5
[15] = test system: UACC257
[16] = test system: UACC62
[17] = test system: WM115
[18] = test system: WM1716
[19] = test system: WM1745
[20] = test system: WM3526
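Also: cells treated in 1,536-well plates, then fixed and DAPI-stained, with nuclei counted from automated high-throughput microscope images.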

SMILES | cell count [1] [%] | cell count [2] [%] | cell count [3] [%] | cell count [4] [%] | cell count [5] [%] | cell count [6] [%] | cell count [7] [%] | cell count [8] [%] | cell count [9] [%] | cell count [10] [%] | cell count [11] [%] | cell count [12] [%] | cell count [13] [%] | cell count [14] [%] | cell count [15] [%] | cell count [16] [%] | cell count [17] [%] | cell count [18] [%] | cell count [19] [%] | cell count [20] [%]
C#Cc1cccc(Nc2ncnc3cc(OCCOC)c(OCCOC)cc23)c1 [erlotinib] + COC(=O)c1sccc1S(=O)(=O)Nc1ccc(Nc2ccccc2)cc1OC [GSK0660] (first compound 4 µM, partner dose 5 µM) | 83.5 | 64.8 | 94.4 | 65.4 | 101 | 87.2 | 75.7 | 74 | 57.7 | 75.5 | 66.7 | 93.7 | 68.6 | 66.6 | 80.7 | 81.4 | 68 | 76.1 | 63.9 | 63.2
OCc1c[nH]c2ccccc12 [Indole-3-carbinol] + Cn1nnc2c(C(N)=O)ncn2c1=O [temozolomide] (first compound 4 µM, partner dose 10 µM) | 103 | 93.8 | 76 | 80.8 | 56.6 | 96 | 89.1 | 104 | 74.8 | 88.9 | 37.4 | 91 | 66.8 | 73.3 | 87.5 | 62.8 | 66.4 | 55.2 | 75.4 | 86.7
Nc1cccc2c1CN(C1CCC(=O)NC1=O)C2=O (configuration not stated) [lenalidomide] + Oc1nc(-c2ccc(C(F)(F)F)cc2)nc2c1CSCC2 [XAV939] (first compound 5 µM, partner dose 10 µM) | 79.1 | 84.6 | 98.8 | 78.5 | 85.3 | 86.2 | 85.7 | 83.8 | 95.6 | 84.4 | 47.5 | 68.5 | 89.2 | 62.8 | 90.4 | 90 | 92.4 | 84.9 | 63.9 | 98.3
C#Cc1cccc(Nc2ncnc3cc(OCCOC)c(OCCOC)cc23)c1 [erlotinib] + O=C(CCCCCCC(=O)Nc1ccccc1)NO [vorinostat] (first compound 4 µM, partner dose 0.4 µM) | 62.3 | 70.7 | 91 | 66.1 | 59.5 | 77.9 | 94.5 | 96.4 | 58.8 | 94.8 | 60.8 | 61.1 | 89 | 83.2 | 96 | 69 | 94.4 | 80.1 | 77.9 | 59.9
OCc1c[nH]c2ccccc12 [Indole-3-carbinol] + CN(NC(=O)CC(=O)NN(C)C(=S)c1ccccc1)C(=S)c1ccccc1 [STA4783] (first compound 4 µM, partner dose 0.03 µM) | 46.2 | 89.7 | 14.1 | 14.3 | 69.3 | 86.3 | 107 | 21.2 | 59 | 73.6 | 17.3 | 65.2 | 73.4 | 62.7 | 96.6 | 57.8 | 11.2 | 95.1 | 18.6 | 104
C#Cc1cccc(Nc2ncnc3cc(OCCOC)c(OCCOC)cc23)c1 [erlotinib] + O=C(Nc1cccc(Cl)c1)Nc1ncc(CCNc2ncnc3ccsc23)s1 [SNS314] (first compound 4 µM, partner dose 0.004 µM) | 54.8 | 41.7 | 42.7 | 57 | 67.3 | 63.8 | 62.7 | 46.4 | 44.8 | 51.3 | 38.1 | 65.2 | 82.1 | 52.9 | 57.2 | 69 | 34.8 | 44.2 | 35.2 | 49
OCc1c[nH]c2ccccc12 [Indole-3-carbinol] + Cc1cc(N2CCOCC2)cc2[nH]c(-c3c(NC[C@@H](O)c4cccc(Cl)c4)cc[nH]c3=O)nc12 [BMS536924] (first compound 4 µM, partner dose 1 µM) | 75.5 | 86.8 | 101 | 82.6 | 101 | 106 | 134 | 80.4 | 93.8 | 81.3 | 78.8 | 77.4 | 86.5 | 64.2 | 101 | 62.1 | 93 | 109 | 61.3 | 84.2
C#Cc1cccc(Nc2ncnc3cc(OCCOC)c(OCCOC)cc23)c1 [erlotinib] + O=S(=O)(c1ccccc1)N(CC(F)(F)F)c1ccc(C(O)(C(F)(F)F)C(F)(F)F)cc1 [T0901317] (first compound 4 µM, partner dose 7 µM) | 57.2 | 64.2 | 83 | 69.2 | 70.8 | 77.1 | 78.9 | 67.9 | 64.5 | 94.5 | 63 | 82.3 | 80.8 | 46 | 71.3 | 50.9 | 80.2 | 85 | 48.9 | 67.1
Nc1cccc2c1CN(C1CCC(=O)NC1=O)C2=O (configuration not stated) [lenalidomide] + CC1(C)NC(=O)N(c2ccc([N+](=O)[O-])c(C(F)(F)F)c2)C1=O [nilutamide] (first compound 5 µM, partner dose 5 µM) | 87.7 | 103 | 97.3 | 121 | 107 | 96.7 | 115 | 110 | 121 | 118 | 97.1 | 101 | 102 | 102 | 105 | 91.6 | 85.4 | 84.4 | 100 | 84
Clc1ccc(Nc2nnc(Cc3ccncc3)c3ccccc23)cc1 [vatalanib] + CCN(CC)CCCCNc1ncc2cc(-c3cc(OC)cc(OC)c3)c(NC(=O)NC(C)(C)C)nc2n1 [PD173074] (first compound 10 µM, partner dose 0.5 µM) | 80.7 | 72.3 | 82.1 | 72.5 | 74.2 | 70.1 | 69.8 | 59.7 | 61.9 | 66.2 | 84 | 75.3 | 86.2 | 69.7 | 70.1 | 74.2 | 77.3 | 79.8 | – | 68.8
OCc1c[nH]c2ccccc12 [Indole-3-carbinol] + O=C(O)C(=O)Nc1sc2c(c1C(=O)O)CCNC2 [TCS401] (first compound 4 µM, partner dose 8.33333 µM) | 88.2 | 101 | 97.4 | 87.2 | 118 | 94.5 | 91.2 | 132 | 109 | 112 | 66.6 | 98.6 | 115 | 82.8 | 90.6 | 100 | 87.2 | 108 | – | 88.8
O=C(CCCCCCC(=O)Nc1ccccc1)NO [vorinostat] + N#Cc1c(O)c2c(-c3ccc(-c4ccccc4O)cc3)csc2[nH]c1=O [A769662] (first compound 0.4 µM, partner dose 10 µM) | 52.9 | 76.1 | 78.7 | 52.5 | 97.7 | 82.5 | 90.4 | 99.5 | 64.8 | 78.7 | 29.4 | 73.1 | 79.9 | 74.7 | 60 | 96 | 84.8 | 102 | 85 | 82.8
Nc1cccc2c1CN(C1CCC(=O)NC1=O)C2=O (configuration not stated) [lenalidomide] + C=CCn1c(=O)c2cnc(Nc3ccc(N4CCN(C)CC4)cc3)nc2n1-c1cccc(C(C)(C)O)n1 [MK1775] (first compound 5 µM, partner dose 0.1 µM) | 101 | 105 | 86.6 | 73.3 | 75.7 | 101 | 118 | 74.5 | 71.7 | 85.5 | 53.1 | 82.5 | 82.8 | 58.2 | 88.4 | 69.2 | 67.6 | 79.1 | 42.9 | 94.5
OCc1c[nH]c2ccccc12 [Indole-3-carbinol] + COc1cc(N2CCC(N3CCN(C)CC3)CC2)ccc1Nc1ncc(Cl)c(Nc2ccccc2S(=O)(=O)C(C)C)n1 [NVP-TAE684] (first compound 4 µM, partner dose 0.4 µM) | 77.3 | 85.6 | 104 | 104 | 85.4 | 85.4 | 95.2 | 68.1 | 65.2 | 105 | 98.8 | 63 | 101 | 74.2 | 78.6 | 77.5 | 82.8 | 88.8 | – | 79.6
Cn1c(Nc2ccc(C(F)(F)F)cc2)nc2cc(Oc3ccnc(-c4ncc(C(F)(F)F)[nH]4)c3)ccc21 + COC(=O)c1sccc1S(=O)(=O)Nc1ccc(Nc2ccccc2)cc1OC [GSK0660] (first compound 0.4 µM, partner dose 5 µM) | 23.1 | 49.4 | 83.1 | 33.2 | 91.7 | 65.8 | 66.1 | 64.5 | 49.6 | 48 | 30.5 | 58.8 | 61.7 | 40.2 | 73.9 | 30.4 | 27.5 | 61.7 | 58.1 | 48.3
Clc1ccc(Nc2nnc(Cc3ccncc3)c3ccccc23)cc1 [vatalanib] + CC(C)(C)c1cnc(CSc2cnc(NC(=O)C3CCNCC3)s2)o1 [SNS-032] (first compound 10 µM, partner dose 0.05 µM) | 53.3 | 76.9 | 78.5 | 64.7 | 69.2 | 67.7 | 62.3 | 58 | 38.2 | 64.2 | 53.7 | 55.5 | 70.5 | 34.6 | 59.4 | 64.4 | 54.8 | 67.4 | 36.1 | 77.6
Clc1ccc(Nc2nnc(Cc3ccncc3)c3ccccc23)cc1 [vatalanib] + COCC[n+]1c2c(n(Cc3cnccn3)c1C)C(=O)c1ccccc1C2=O [YM155] (first compound 10 µM, partner dose 0.002 µM) | 85.4 | 58.7 | 82.6 | 81.8 | 61.4 | 62.6 | 50.3 | 70.5 | 70.8 | 88.6 | 91.3 | 88.7 | 105 | 66 | 77.6 | 72.7 | 116 | 83.5 | 62.2 | 86.9
C#Cc1cccc(Nc2ncnc3cc(OCCOC)c(OCCOC)cc23)c1 [erlotinib] + Cc1cc([N+](=O)[O-])ccc1NS(=O)(=O)c1cc(Cl)ccc1Cl [FH535] (first compound 4 µM, partner dose 5 µM) | 43.8 | 48.9 | 66.9 | 77 | 69.8 | 51.9 | 53.8 | 64.2 | 83.7 | 64.5 | 58.3 | 87.7 | 70.4 | 43.1 | 74.6 | 75 | 81.3 | 83 | 62.4 | 63.5
C#Cc1cccc(Nc2ncnc3cc(OCCOC)c(OCCOC)cc23)c1 [erlotinib] + CC(C)(C)c1cnc(CSc2cnc(NC(=O)C3CCNCC3)s2)o1 [SNS-032] (first compound 4 µM, partner dose 0.05 µM) | 82.7 | 92.4 | 95.6 | 53.1 | 76.7 | 84.7 | 96 | 78.8 | 40.1 | 82.6 | 49.9 | 59.3 | 106 | 64.8 | 98.8 | 57.7 | 59.9 | 86.9 | 46.4 | 84.7
